Molecules are shown by their SMILES. Several values for one entry are separate records, joined by “and”; a condition that tells them apart may be missing. Equal values may be shown once. The campaign covered roughly 110,000 compounds. About 230 (0.21%) showed an effect of 50% or more. Some of the results follow.
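Also: 30 min substrate incubation versus DMSO and 10 µM JCP410 controls.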

The target in the experiment is DPAP1 (Plasmodium falciparum, UniProt Q8IIJ9). Nature of the experiment: primary screen, percent inhibition; read by cleavage of a fluorogenic dipeptide substrate; higher = more effect of the substance. The arrangement: species or system P. falciparum D10 trophozoite lysates; single well.
Sequence of DPAP1 (Q8IIJ9 whole entry, looked up): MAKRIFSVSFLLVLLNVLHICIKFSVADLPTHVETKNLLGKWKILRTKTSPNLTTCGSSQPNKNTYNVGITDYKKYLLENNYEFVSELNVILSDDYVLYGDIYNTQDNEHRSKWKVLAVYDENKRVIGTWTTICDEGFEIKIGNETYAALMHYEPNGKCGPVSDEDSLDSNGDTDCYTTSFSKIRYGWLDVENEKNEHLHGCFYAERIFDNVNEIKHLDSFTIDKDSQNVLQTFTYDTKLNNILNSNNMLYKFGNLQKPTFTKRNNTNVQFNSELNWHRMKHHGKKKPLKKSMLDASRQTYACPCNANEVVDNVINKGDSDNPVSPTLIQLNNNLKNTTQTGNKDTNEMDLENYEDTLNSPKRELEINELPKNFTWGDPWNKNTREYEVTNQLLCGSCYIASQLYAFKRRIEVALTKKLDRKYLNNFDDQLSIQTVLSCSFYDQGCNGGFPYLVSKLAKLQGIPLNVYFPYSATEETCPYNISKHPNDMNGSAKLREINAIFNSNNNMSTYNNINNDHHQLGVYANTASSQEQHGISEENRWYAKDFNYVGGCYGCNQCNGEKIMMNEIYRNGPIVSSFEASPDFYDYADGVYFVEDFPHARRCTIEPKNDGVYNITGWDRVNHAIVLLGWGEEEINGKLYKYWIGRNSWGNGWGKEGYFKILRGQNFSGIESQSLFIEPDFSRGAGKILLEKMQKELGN
Turning to `Nc1c(-c2nc(-c3ccc4c(c3)OCO4)no2)nnn1-c1ccccc1F`, the “% Inhibition @ 10 uM” value was -6.87%.
To `CC1=C(C(=O)Nc2ccccc2)C(c2ccc(O)cc2)C(C#N)=C(SCc2ccccc2)N1` (stereo not shown) belongs -0.216%; to `CCCN1CCN(CCCNC(=O)Cn2nc(-c3ccccc3)ccc2=O)CC1`, -2.99%.
`OCC1CCCN(Cc2cccc(F)c2)C1` (stereo not shown): the “% Inhibition @ 10 uM” value is -4.58%.
With `Cc1ccc2nc(Nc3ncc4c(n3)CC(C)(C)CC4=O)nc(C)c2c1`, the “% Inhibition @ 10 uM” value is -2.46%.
For the compound `COC(=O)c1ccc(OCC(O)CNS(=O)(=O)c2ccccc2C(=O)O)cc1` (stereo not shown), the “% Inhibition @ 10 uM” value is given as 1.76%.
In the case of `Cc1ccc(NC(=O)C(CC(C)C)NC(=O)C2CCC(C)CC2)nc1` (stereo not shown), the “% Inhibition @ 10 uM” value is on record as -0.972%.
With `CC(=O)N1CCC2(CC1)OC(=O)C(C)=C2C(=O)NCCCN1CCN(C)CC1`, the “% Inhibition @ 10 uM” value is reported as -1.31%.
The value for `Cc1ccc(-c2nc(C(=O)NCCN3CCOCC3)c3n2CCCCC3)cc1` was -1.98%; that for `CSc1ccc(/C=N/S(=O)(=O)c2ccccc2)cc1` was -1.06%; that for `Cc1ccc(/C=C2\C(=O)NC(=O)N(C)C2=O)o1` was 5.31%.
The value for `O=C(Nc1cc(-c2ccccc2)[nH]n1)C(F)(F)F` was -5.17%; that for `COC(=O)/C(C#N)=C/c1c(Oc2ccccc2Cl)nc2c(C)cccn2c1=O` was 8.21%; that for `O=C(NCCN1CCOCC1)c1ccc(CN2CC(=O)N3CCCCC3C2=O)cc1` (stereo not shown) was -0.0871%.
`CCOC(=O)c1cnc(SCC(=O)N(CC)Cc2ccccc2)nc1N`: the “% Inhibition @ 10 uM” value was -3.19%.
To `COc1ccccc1NC(=O)C12CCC(C)(c3nc4ccccc4nc31)C2(C)C` (stereo not shown) belongs -0.622%; to `CCOC(=O)c1sc(NC(=O)/C=C/c2ccc(OCC)cc2)c(C(=O)OCC)c1C`, 0.222%.
On to `O=C(Nc1ccn(-c2ccccc2)n1)c1ccccc1F`, for which the “% Inhibition @ 10 uM” value was 3.68%.
As for `COc1ccc(C2C(C#N)=C(N)N(c3ccccc3)C3=C2C(=O)CC(C)(C)C3)cc1CN1CCOCC1` (stereo not shown), the “% Inhibition @ 10 uM” value came out at 0.317%.
The value for `COc1ccc(OC)c(NC(=O)C23CC4CC(C2)CC(n2cnc(Br)n2)(C4)C3)c1` was -3.37%; that for `O[C@H]1CC[C@H](NC2CCC(c3ccccc3)CC2)CC1` (stereo partly shown) was 3.48%.
As to `Cc1cc(C)nc(/N=C(\N)NC2CCCCCC2)n1`, the “% Inhibition @ 10 uM” value turned out to be 10%.
As for `CC(C)=C1C2C=CC1C(C(=O)Nc1cc(C)ccc1C)C2C(=O)O` (stereo not shown), the “% Inhibition @ 10 uM” value is reported as 5.24%.
To `CC(=O)c1ccc(N2CCN(Cc3ccc(C(C)C)cc3)CC2)cc1` belongs -6.44%; to `COc1ccccc1/C=C/C=C1\N=C(c2ccccc2OC)OC1=O`, 8.21%.
Consider `CC1CCC/C=C/C2CC(O)CC2C(O)/C=C/C(=O)O1` (stereo not shown), for which the “% Inhibition @ 10 uM” value came out at 0.275%.
The value for `CC[C@H](NC(=O)[C@H](Cc1nccs1)NC(=O)c1ccc(-c2ccccc2Cl)nc1)C(=O)c1nc2ccccc2o1` was 2.87%; that for `CCCCCC12CCC(O)(CC1)CC2O` (stereo not shown) was 4.6%.
The value for `CNC(=O)C1CC(=O)N(CCc2ccc(OC)c(OC)c2)/C(=N/c2cccc(C(F)(F)F)c2)S1` (stereo not shown) was -9.75%.
Take `CC(C)c1ccc(NS(=O)(=O)c2ccc(Cl)nc2)cc1`: the “% Inhibition @ 10 uM” value is 3.24%.
As to `O=C(CCCCCn1c(=O)c2sccc2n(Cc2cccnc2)c1=O)NCc1ccccc1Cl`, the “% Inhibition @ 10 uM” value is -4.43%.
The value for `CC(=O)N1CCN(C2CCCCCC2)CC1` was 1.57%; that for `COc1ccccc1/C=C/c1nc(C#N)c(N2CCCC2)o1` was -0.808%.
The value for `Cn1c(NCc2ccccn2)nc2ccccc21` was -0.872%; that for `O=C(NCCc1c[nH]c2ccccc12)C1CCN(c2ncnc3c2sc2cccc(F)c23)CC1` was 2.65%; that for `O=C(Nc1ccncc1)c1ccccc1O` was 13.1%.
As for `N#Cc1ccc(Oc2ccc(C(=O)Nc3ccccc3)cc2)cc1`, the “% Inhibition @ 10 uM” value amounted to 0.0345%.
To `O=C(/C=C/c1ccccc1)NCc1ccc2c(c1)OCO2` belongs -1.37%; to `COc1ccc(C2C3=C(O)CC(C)(C)CC3=Nc3ccccc3N2C(=O)C(F)(F)F)cc1OC` (stereo not shown), -1.44%; to `CC(=O)c1sc(Nc2ccc(S(=O)(=O)Nc3onc(C)c3C)cc2)nc1C`, -5.3%.
As for `O=C(Nc1cnc2ccccc2c1)c1ccncc1`, the “% Inhibition @ 10 uM” value was -0.615%.
The value for `COc1ccc(C(C(=O)O)N2Cc3ccccc3C2=O)cc1` (stereo not shown) was 0.708%.
Take `O=C(CCN1CCN(C2C3CC4CC(C3)CC2C4)CC1)N1c2ccccc2Sc2ccc(C(F)(F)F)cc21` (stereo not shown): the “% Inhibition @ 10 uM” value is -3.14%.
The value for `O=C(NCC1CCCO1)C1CCN(C(=O)c2ccc(-n3ccc4ccccc43)s2)CC1` (stereo not shown) was 0.0489%.
To `Cn1c(C2CCCO2)nc2ccccc21` (stereo not shown) belongs 6.78%.
Take `CCOc1ccc(/C=C2\SC(Nc3ccc(F)cc3)=NC2=O)cc1`: the “% Inhibition @ 10 uM” value was 0.993%.
The value for `Cc1ccc(Cl)cc1-n1ncc2c(NCc3cccnc3)ncnc21` was 3.52%; that for `O=C(CSc1ccc(Cl)cc1)Nc1ncc2c(n1)CC(c1cccs1)CC2=O` (stereo not shown) was 0.83%; that for `Cc1ccc(N2C(=O)CC(NCCc3ccccc3)C2=O)cc1` (stereo not shown) was 1.78%.
On to `COc1ccc(C2c3c(-c4ccccc4O)n[nH]c3C(=O)N2CCO)cc1OC` (stereo not shown), for which the “% Inhibition @ 10 uM” value was 0.366%.
On to `COc1ccc(CN2CCCC(O)C2)cc1C` (stereo not shown), for which the “% Inhibition @ 10 uM” value is recorded as -6.36%.
Consider `COc1ccccc1C(=O)Nc1cc(Cl)ccc1Cl`, for which the “% Inhibition @ 10 uM” value is -1.98%.
As for `COc1cccc(C(=O)N2CCN(C(=O)c3cccnc3)CC2)c1`, the “% Inhibition @ 10 uM” value is recorded as -9.87%.
To `Cc1ccccc1NC(=O)c1c(-c2ccccc2Cl)noc1C` belongs 7.96%.
`CCCCOc1cccc(C2c3c(-c4c(C)cc(C)cc4O)n[nH]c3C(=O)N2CCO)c1` (stereo not shown): the “% Inhibition @ 10 uM” value is 4.83%.
To `O=[N+]([O-])c1ccccc1CN1CCSCC1` belongs -2.03%.
The value for `CC1CCCC(C(=O)O)N1C(=O)CCSC(=O)c1ccccc1` (stereo not shown) was -7.09%; that for `C=CCn1c2ccccc2n2cc(C)nc12` was 1.8%.
`Oc1c2c(nc3c(-c4ccc(Cl)cc4)c(Cc4ccccc4)nn13)CCCC2`: the “% Inhibition @ 10 uM” value came to 4.88%.
To `Cc1cc(C)n(-c2nnc(C)n2/N=C/c2ccc(OC(C)C)cc2)n1` belongs -2.98%; to `CCC/N=c1\c(NC(=O)c2ccc(C(C)(C)C)cc2)c(O)oc2ccccc12`, -0.441%; to `NC(=O)c1cc(S(=O)(=O)NCCc2ccco2)cs1`, 0.879%.
The value for `Cc1nnc(N2CCC(C(=O)N3CCCCCC3)CC2)c2nn(-c3ccc(Cl)cc3)c(C)c12` was 9.05%.
Turning to `Cc1nn(-c2ccccc2)c2c1N(CC(=O)NCC1CCCO1)C(=O)CS2` (stereo not shown), the “% Inhibition @ 10 uM” value came to 5.94%.
The value for `COc1ccc(C2CC(=O)C3=C(C2)NC(=O)CC3c2ccc(F)cc2)cc1OC` (stereo not shown) was 0.8%; that for `CC(C)CCNC(=O)Cn1c(=O)c2cccn2c2cccnc21` was -1.81%; that for `CCc1ccc(OCC(=O)N(Cc2ccccc2F)C2CCS(=O)(=O)C2)cc1` (stereo not shown) was 0.366%.
Take `NC(=O)CC[C@H](NC(=O)OCc1ccccc1)C(=O)N[C@H](CCc1ccccc1)C(=O)CO`: the “% Inhibition @ 10 uM” value was -3.97%.
Regarding `Cc1cc(C)n2c(SCc3nnnn3-c3ccccc3)nnc2n1`, the “% Inhibition @ 10 uM” value was -2.91%.
`COc1ccc(CNc2nc(-c3ccc(Cl)cc3)nn2S(=O)(=O)c2ccccc2)cc1`: the “% Inhibition @ 10 uM” value came out at 0.628%.
For the compound `COc1cc(/C=C2/SC(N3CC(C)OC(C)C3)=NC2=O)ccc1O` (stereo not shown), the “% Inhibition @ 10 uM” value stood at 1.28%.
The value for `CN(CCCNC(=O)C1CCC(CNS(=O)(=O)c2ccccc2)CC1)Cc1ccccc1` (stereo not shown) was -2.72%; that for `Cc1[nH]nc2c1C1(CCN(Cc3ccccc3)CC1)C(C#N)=C(N)O2` was -2.48% and 3.01%.
Regarding `Nc1ccccc1/N=C1/C=C(O)CC(c2cccs2)C1` (stereo not shown), the “% Inhibition @ 10 uM” value worked out at 2.44%.
Consider `CC(C)c1ccc(SCCc2ccccn2)cc1`, for which the “% Inhibition @ 10 uM” value was 5%.
Consider `CCOC(=O)c1c2n(c3cc(Cl)c([N+](=O)[O-])cc3c1=O)CCCCC2`, for which the “% Inhibition @ 10 uM” value is recorded as 3.1%.
Take `O=C(NCCc1ccc(Cl)cc1)C1CCC(=O)N1CCc1ccccc1` (stereo not shown): the “% Inhibition @ 10 uM” value is 4.81%.
The value for `CN(C)c1ccc(C2C3=C(O)CC(C)(C)CC3=Nc3ncnn32)cc1` (stereo not shown) was -3.63%; that for `Cc1cc2c(cc3c(SCc4nc(-c5ccccc5F)oc4C)nnc(C)n32)o1` was 0.896%; that for `CC(Oc1ccc(Cl)cc1Cl)c1nc(-c2ccncc2)no1` (stereo not shown) was -6.86%.
With `O=C(CSCc1c(Cl)cccc1Cl)NCc1cccnc1`, the “% Inhibition @ 10 uM” value stood at 3.05%.
The value for `CN(C)/C=N/C(=O)CN1CCCC1=O` was -1.69%; that for `O=C(CCNC(=O)Cn1cnc2sc3c(c2c1=O)CCCC3)NCC1CCCO1` (stereo not shown) was -2.4%; that for `COc1ccccc1OCc1ccc(C(=O)NCc2ccccc2F)cc1` was 2.09%.
To `OCC1c2ccccc2-c2ccccc21` belongs 0.673%; to `Cc1cccc(N2C(=O)CC(n3c(C)nc4ccccc43)C2=O)c1` (stereo not shown), -1.36%; to `O=S(=O)(c1cccc2nsnc12)N1CCC(O)(c2cccc(C(F)(F)F)c2)CC1`, 16.4%.
`O=C(CCCC(=O)c1ccccc1)NCCSCc1ccccc1`: the “% Inhibition @ 10 uM” value is reported as -5.03%.
To `COc1ccccc1C(=O)N/C(=C/c1ccc(Br)cc1)C(=O)N1CCCCC1` belongs -8.88%; to `C=CCOCC(O)CSCc1ccccc1` (stereo not shown), -6.86%.
For `O=C(NCC1COc2ccccc2O1)C1CCN(S(=O)(=O)c2c[nH]cn2)CC1` (stereo not shown), the “% Inhibition @ 10 uM” value was 4.51%.
To `COC(=O)c1ccc2nc(Nc3nc4cc5c(cc4s3)OCO5)sc2c1` belongs 0.458%; to `C=CCN1CC(=O)C(c2nc3cc(C)ccc3[nH]2)=C1N`, -3.22%.
Take `C=Cc1ccc(Cn2c(C(=O)O)c(CNCCc3cccs3)c3ccccc32)cc1`: the “% Inhibition @ 10 uM” value was -3.21%.
`Cc1ccc(Cc2nnc(C(=O)NC3CCCCCC3)o2)cc1`: the “% Inhibition @ 10 uM” value was found to be 0.974%.
The value for `COc1ccccc1C(c1ccc(C)o1)c1ccc(C)o1` was 16.1%.
Take `COC(=O)c1nnn(-c2ccc(C)c(Cl)c2)c1C(=O)OC`: the “% Inhibition @ 10 uM” value was -3.39%.
For `CC(=O)Nc1ccc(S(=O)(=O)Nc2ccn(Cc3ccccc3Cl)n2)cc1`, the “% Inhibition @ 10 uM” value is given as -3.77%.
The value for `OC(COCc1ccccc1F)CN1CCCCC1` (stereo not shown) was 1.49%; that for `COc1ccc(CC(=O)NC(C)C(c2cccs2)N2CCN(C)CC2)cc1OC` (stereo not shown) was 5.53%.

The record behind these values is paper PMC6919601, “Identification of Plasmodium dipeptidyl aminopeptidase allosteric inhibitors by high throughput screening” (PLoS ONE, 2019).
